Measured values published in PMC5700166.
The entries are a selection whose mix differs from that of the whole data set. The list includes weakly bound sequences.

Experiments:
Experiment in all cases: protein-binding microarray (PBM)
Conditions in all cases: PBM: ~300 nM protein, 6 mM HEPES pH 7.8, 80 mM KCl, 0.5 mM EDTA, 0.5 mM EGTA, 6% glycerol, 35 ng/ul poly-dIdC, 1% milk, 1 h, room temperature; Ap Aiptasia and Nv Nematostella (sea anemones) / Co Capsaspora / Aq Amphimedon (sponge) / Dm Drosophila / Hu human; RHD is the Rel homology domain; high values mean tight binding; most listed sequences are background and not binding sites; double strand, one strand shown
GST-Ap-NF-kB RHD = target: T1, GST-Ap-NF-kB RHD (UniProt A0A913YAJ5)
T1 sequence: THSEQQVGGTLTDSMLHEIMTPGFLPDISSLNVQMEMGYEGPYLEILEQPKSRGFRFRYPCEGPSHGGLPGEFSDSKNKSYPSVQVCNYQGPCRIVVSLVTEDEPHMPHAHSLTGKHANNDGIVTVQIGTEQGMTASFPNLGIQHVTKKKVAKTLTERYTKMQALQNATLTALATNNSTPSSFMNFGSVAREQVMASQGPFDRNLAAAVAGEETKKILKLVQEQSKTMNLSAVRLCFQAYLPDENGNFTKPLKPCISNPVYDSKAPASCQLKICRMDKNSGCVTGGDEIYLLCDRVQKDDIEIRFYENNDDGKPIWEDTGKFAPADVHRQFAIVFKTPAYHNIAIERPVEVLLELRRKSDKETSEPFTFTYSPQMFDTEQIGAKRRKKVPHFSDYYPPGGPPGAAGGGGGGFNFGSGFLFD

[1] = target: T2, GST-Nv-NF-kB (Cys allele) (UniProt E5G601)
T2 sequence: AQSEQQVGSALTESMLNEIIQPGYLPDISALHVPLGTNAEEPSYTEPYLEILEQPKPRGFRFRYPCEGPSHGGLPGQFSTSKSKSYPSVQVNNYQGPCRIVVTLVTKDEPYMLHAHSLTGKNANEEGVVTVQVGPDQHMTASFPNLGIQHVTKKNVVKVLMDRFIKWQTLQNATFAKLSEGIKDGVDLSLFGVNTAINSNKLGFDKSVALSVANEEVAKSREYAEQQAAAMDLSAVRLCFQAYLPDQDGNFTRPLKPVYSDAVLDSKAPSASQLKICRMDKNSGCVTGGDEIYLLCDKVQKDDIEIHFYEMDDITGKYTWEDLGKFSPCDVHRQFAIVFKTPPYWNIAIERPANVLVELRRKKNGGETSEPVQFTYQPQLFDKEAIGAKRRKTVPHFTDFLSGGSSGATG

GST-Co-NF-kB = target: T3, GST-Co-NF-kB (UniProt F1ARL5)
T3 sequence: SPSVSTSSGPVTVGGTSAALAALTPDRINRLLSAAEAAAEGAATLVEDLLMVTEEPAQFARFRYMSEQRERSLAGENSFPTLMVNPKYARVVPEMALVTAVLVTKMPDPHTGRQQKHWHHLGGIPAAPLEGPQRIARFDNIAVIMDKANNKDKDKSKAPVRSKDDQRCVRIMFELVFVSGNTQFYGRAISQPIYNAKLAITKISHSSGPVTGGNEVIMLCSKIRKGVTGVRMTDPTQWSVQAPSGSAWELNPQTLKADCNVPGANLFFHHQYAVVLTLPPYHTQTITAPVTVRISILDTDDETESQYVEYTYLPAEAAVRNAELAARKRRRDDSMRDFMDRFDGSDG

GST-Dm-Relish = target: T4, GST-Dm-Relish (UniProt Q94527)
T4 sequence: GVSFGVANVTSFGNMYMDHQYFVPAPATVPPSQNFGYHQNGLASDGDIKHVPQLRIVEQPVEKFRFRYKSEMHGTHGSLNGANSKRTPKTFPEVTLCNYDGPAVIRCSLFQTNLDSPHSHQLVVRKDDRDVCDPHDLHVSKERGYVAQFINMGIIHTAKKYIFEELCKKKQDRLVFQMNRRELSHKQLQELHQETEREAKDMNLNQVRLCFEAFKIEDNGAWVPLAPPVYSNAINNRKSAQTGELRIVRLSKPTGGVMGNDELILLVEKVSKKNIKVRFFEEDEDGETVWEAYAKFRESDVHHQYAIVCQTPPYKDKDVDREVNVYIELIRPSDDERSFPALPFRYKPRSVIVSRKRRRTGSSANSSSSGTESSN

GST-Aq-NF-kB = target: T5, GST-Aq-NF-kB (UniProt A9Y5G7)
T5 sequence: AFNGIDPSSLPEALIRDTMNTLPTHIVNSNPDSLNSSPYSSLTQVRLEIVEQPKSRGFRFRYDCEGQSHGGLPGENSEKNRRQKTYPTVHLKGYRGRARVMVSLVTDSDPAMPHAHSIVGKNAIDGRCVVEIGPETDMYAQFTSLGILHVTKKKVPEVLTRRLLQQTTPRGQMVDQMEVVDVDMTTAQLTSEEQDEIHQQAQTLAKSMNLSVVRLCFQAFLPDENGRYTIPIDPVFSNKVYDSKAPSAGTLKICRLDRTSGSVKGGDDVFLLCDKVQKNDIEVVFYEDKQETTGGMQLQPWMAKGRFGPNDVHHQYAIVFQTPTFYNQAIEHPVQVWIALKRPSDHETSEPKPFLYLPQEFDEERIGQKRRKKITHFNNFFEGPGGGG

Row | Sequence | binding signal (GST-Ap-NF-kB RHD) [z-score] | binding signal [1] [z-score] | binding signal (GST-Co-NF-kB) [z-score] | binding signal (GST-Dm-Relish) [z-score] | binding signal (GST-Aq-NF-kB) [z-score]
1 | CCGATTAACATCAAAAATATTAGTGATGTTAATCGGGTCTTGATTCGCTTGACGCTGCTG | -0.512 | -0.362 | 0.308 | 0.569 | -0.0225
2 | CCGATTAACATCAAATTTCCAAATGATGTTAATCGGGTCTTGATTCGCTTGACGCTGCTG | -0.696 | -0.399 | -0.471 | 0.661 | 0.286
3 | CCGATTAACATCAGAGGTGCTTCTGATGTTAATCGGGTCTTGATTCGCTTGACGCTGCTG | -0.0333 | 0.709 | -1.09 | 0.656 | 0.271
4 | CCGATTAACATCACTTAGATTAGTGATGTTAATCGGGTCTTGATTCGCTTGACGCTGCTG | -0.316 | -0.457 | -0.662 | -0.0724 | -0.469
5 | CCGATTAACATCACGACGATCCATGATGTTAATCGGGTCTTGATTCGCTTGACGCTGCTG | -0.218 | -0.642 | 0.00596 | -0.42 | -0.495
6 | CCGATTAACATCAGGATATTCCATGATGTTAATCGGGTCTTGATTCGCTTGACGCTGCTG | -0.315 | -0.772 | -0.454 | 0.545 | 0.627
7 | CCGATTAACATCAGCACTTGGTTTGATGTTAATCGGGTCTTGATTCGCTTGACGCTGCTG | -0.0856 | -0.201 | -0.105 | -0.528 | -0.526
8 | CCGATTAACATCACTGTCGCGGATGATGTTAATCGGGTCTTGATTCGCTTGACGCTGCTG | 0.171 | 0.0728 | -0.0474 | -0.179 | -0.507
9 | CCGATTAACATCAGGTCGGAGCCTGATGTTAATCGGGTCTTGATTCGCTTGACGCTGCTG | -0.778 | 0.297 | -1 | -0.335 | -0.72
10 | CCGATTAACATCAGTGAGCGCCATGATGTTAATCGGGTCTTGATTCGCTTGACGCTGCTG | 0.313 | 0.0699 | -0.108 | -0.115 | -0.256
11 | CCGATTAACATCAAAATTTCCGATGATGTTAATCGGGTCTTGATTCGCTTGACGCTGCTG | -0.469 | 0.233 | 0.307 | 0.473 | 0.933
12 | CCGATTAACATCATGTTTAGTCCTGATGTTAATCGGGTCTTGATTCGCTTGACGCTGCTG | -0.442 | 0.000489 | -0.443 | 0.0411 | 0.0346
13 | CCGATTAACATCAAATCGCAGCCTGATGTTAATCGGGTCTTGATTCGCTTGACGCTGCTG | -0.104 | -1.12 | -0.621 | -0.837 | -0.431
14 | CCGATTAACATCAAACCATGCGGTGATGTTAATCGGGTCTTGATTCGCTTGACGCTGCTG | 0.121 | -0.593 | -0.15 | 0.513 | 0.298
15 | CCGATTAACATCATACGAGACCCTGATGTTAATCGGGTCTTGATTCGCTTGACGCTGCTG | 0.905 | -0.0643 | -0.109 | 0.301 | 0.541
16 | CCGATTAACATCATCCGTCCGCCTGATGTTAATCGGGTCTTGATTCGCTTGACGCTGCTG | 0.037 | -0.284 | -0.429 | -0.739 | -0.381
17 | CCGATTAACATCAAATTGGACGCTGATGTTAATCGGGTCTTGATTCGCTTGACGCTGCTG | -0.711 | -0.175 | -0.14 | -0.322 | -0.305
18 | CCGATTAACATCACATCTGGTCGTGATGTTAATCGGGTCTTGATTCGCTTGACGCTGCTG | -0.604 | 0.0863 | 0.346 | 0.638 | -0.354
19 | CCGATTAACATCAGCATACTATTTGATGTTAATCGGGTCTTGATTCGCTTGACGCTGCTG | -0.149 | -1.05 | 0.445 | -0.549 | -0.371
20 | CCGATTAACATCACACAAGGCGATGATGTTAATCGGGTCTTGATTCGCTTGACGCTGCTG | -0.135 | -0.955 | 0.239 | -0.0241 | -0.526
21 | CCGATTAACATCATCCGATAAGTTGATGTTAATCGGGTCTTGATTCGCTTGACGCTGCTG | -0.0396 | -0.365 | -0.186 | -0.352 | -0.128
22 | CCGATTAACATCACCATGATAGCTGATGTTAATCGGGTCTTGATTCGCTTGACGCTGCTG | -0.14 | -0.536 | 0.384 | -0.335 | -0.268
23 | CCGATTAACATCAGCCTTGTCAGTGATGTTAATCGGGTCTTGATTCGCTTGACGCTGCTG | -0.163 | -0.272 | 0.374 | 7.05e-05 | 0.0617
24 | CCGATTAACATCAGTCTACAACCTGATGTTAATCGGGTCTTGATTCGCTTGACGCTGCTG | -0.429 | -1.2 | -1.33 | -0.386 | -0.635
25 | CCGATTAACATCACGAAATTCCGTGATGTTAATCGGGTCTTGATTCGCTTGACGCTGCTG | -0.606 | 0.502 | -0.591 | 0.797 | 0.167
